Measurements: PubChem BioAssay (Tox21)
Values joined by “and” are separate entries in the source; they are usually repeats but may differ in a detail not shown here. Equal entries are not always repeated. This list was built around the results that the source calls inconclusive (neither active nor inactive); the mix of calls is not that of the screen. No potency is given beside an inconclusive call; the fits are too rough. Active and inactive are the calls of the source. Calls follow the shape of the dose curve; as a rule, active = well fitted inhibition curve with a large enough effect in the repeat runs; inconclusive = weak or mixed curves; inactive = no such curve, though single readings can be large or run the other way.

The compounds below were run against Cytochrome P450 3A4 (Homo sapiens) (UniProt P08684) (assay: Cytochrome P450 Family 3 Subfamily A Member 4 (CYP3A4) small molecule antagonists: luciferase reporter qHTS assay (AID 1671201; also: nearly all actives have a fitted effect of over 50% in size)). Conditions: P450-Glo CYP3A4 enzyme, luciferin luminescence, 1 h; series mostly up to 115 µM.
Summary of the method: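 qHTS, 1536-well. CYP3A4 + proluciferin substrate, cpd 10 min RT → NADPH regen 1 h RT → detection reagent 20 min → luminescence (RLU). Ketoconazole positive control.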
Potency is read from the fitted curve at half-maximal effect; tags tell the direction and shape of the fitted curve.

Chain of UniProt P08684 (P08684 whole entry, looked up): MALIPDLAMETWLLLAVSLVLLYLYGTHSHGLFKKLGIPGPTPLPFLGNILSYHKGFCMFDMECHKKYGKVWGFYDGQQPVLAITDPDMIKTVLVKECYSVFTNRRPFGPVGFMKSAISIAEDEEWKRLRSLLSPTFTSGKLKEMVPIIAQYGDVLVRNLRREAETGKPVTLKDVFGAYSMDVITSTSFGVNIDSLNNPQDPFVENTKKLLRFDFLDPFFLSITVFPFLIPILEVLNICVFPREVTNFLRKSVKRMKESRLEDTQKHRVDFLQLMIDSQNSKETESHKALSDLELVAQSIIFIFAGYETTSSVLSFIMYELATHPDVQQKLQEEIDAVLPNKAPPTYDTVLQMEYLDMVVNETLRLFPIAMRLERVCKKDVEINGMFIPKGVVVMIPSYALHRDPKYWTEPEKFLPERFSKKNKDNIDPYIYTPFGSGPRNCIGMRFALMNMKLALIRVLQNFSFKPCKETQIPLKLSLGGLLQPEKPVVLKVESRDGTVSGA

Row | SMILES | Potency
1 | O=C(N[C@H]1N=C(c2ccccc2F)c2cccc3c2N(CC3)C1=O)c1cc2ccccc2[nH]1 | inactive
2 | Cc1ccc(OP(=O)(Oc2ccc(C)cc2)Oc2ccc(C)cc2)cc1 | active: 7.09 µM and active: 10 µM
3 | CCOC(=O)[C@]1(c2ccccc2)Oc2ccccc2[C@@H]1N | inconclusive [inhibitor, full curve]
4 | Cc1ccc(N(SC(F)(Cl)Cl)S(=O)(=O)N(C)C)cc1 | inconclusive [inhibitor, partial curve, poor fit]
5 | CCOP(=O)(OCC)Oc1ccc([N+](=O)[O-])cc1 | inactive
6 | N#Cc1c[nH]cc1-c1cccc2c1OC(F)(F)O2 | inactive
